Measurements: the supplement of paper PMC11880418
Counter-ions that a name gives are not always drawn. The list shows a part of the results. The data scatter; read single values as rough.

What follows are compounds tested on MKN45 (assay: ALDHbr (CSC) cell proportion score relative to DMSO vehicle (ratio to DMSO); breast (SUM159) / gastric (MKN45) / pancreatic (PANC1) / colon cancer lines; ALDHbr cells have high ALDH activity and are rich in cancer stem cells (CSC); higher = more CSC (ALDHbr) cells remaining). Settings: 10 µM; 72 h.
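Further: High-content imaging of ALDEFLUOR-stained cells with Hoechst-labelled nuclei in 384-well plates, triplicate wells, scored as Z-score against 0.1% DMSO vehicle, negative meaning fewer ALDHbr cells.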

Row | Structure (SMILES) | ALDHbr
1 | O=C(O)CN(CCN(CC(=O)O)CC(=O)O)CCN(CC(=O)O)CC(=O)O [Pentetic acid] | 0.755
2 | Cc1cc(CC(=O)O)n(C)c1C(=O)c1ccc(Cl)cc1 [Zomepirac sodium salt] | 1.01
3 | CCN[C@H]1C[C@H](C)S(=O)(=O)c2sc(S(N)(=O)=O)cc21 [Dorzolamide hydrochloride] | 1.06
4 | CCCOc1cc(N)ccc1C(=O)OCCN(CC)CC [Propoxycaine hydrochloride] | 1.28
5 | COc1ccc(CC(C)NCC(O)c2ccc(O)c(NC=O)c2)cc1 (stereo not given) [Formoterol fumarate] | 1.61
6 | OC(c1cc(C(F)(F)F)nc2c(C(F)(F)F)cccc12)C1CCCCN1 (stereo not given) [Mefloquine hydrochloride] | 1.13
7 | CC(CCc1ccc(O)cc1)NCCc1ccc(O)c(O)c1 (stereo not given) [Dobutamine hydrochloride] | 1.1
8 | Cc1ccccc1C(OCCN(C)C)c1ccccc1 (stereo not given) [Orphenadrine hydrochloride] | 1.28
9 | CN(CCCN1c2ccccc2CCc2ccccc21)CC(=O)c1ccc(Cl)cc1 [Lofepramine] | 1.07
10 | COC(=O)C1=C(C)NC(C)=C(C(=O)OCC(C)C)C1c1ccccc1[N+](=O)[O-] (stereo not given) [Nisoldipine] | 0.293
11 | CC(C)[C@H]1CC[C@H](C(=O)N[C@H](Cc2ccccc2)C(=O)O)CC1 [Nateglinide] | 1.02
12 | Nc1ncn(C2OC(CO)C(O)C2O)c(=O)n1 (stereo not given) [Azacytidine-5] | 0.618
13 | CCCCc1oc2ccccc2c1C(=O)c1cc(I)c(OCCN(CC)CC)c(I)c1 [Amiodarone hydrochloride] | 0.359
14 | CC(=O)Oc1cc(C(C)C)c(OCCN(C)C)cc1C [Moxisylyte hydrochoride] | 0.867
15 | O=C(OCCOCCO)c1ccccc1Nc1cccc(C(F)(F)F)c1 [Etofenamate] | 0.701
16 | COCCCOc1cc(C[C@@H](C[C@H](N)[C@@H](O)C[C@H](C(=O)NCC(C)(C)C(N)=O)C(C)C)C(C)C)ccc1OC [Aliskiren hemifumarate] | 0.911
17 | CC1(C)O[C@@H]2C[C@H]3[C@@H]4C[C@H](F)C5=CC(=O)C=C[C@]5(C)[C@H]4[C@@H](O)C[C@]3(C)[C@]2(C(=O)CO)O1 [Flunisolide] | 0.852
18 | CN1CCN(CCCN2c3ccccc3Sc3ccc(C(F)(F)F)cc32)CC1 [Trifluoperazine dihydrochloride] | 0.589

Row | Structure (SMILES) | ALDHbr
19 | Nc1ccc(S(=O)(=O)Nc2ncccn2)cc1 [Sulfadiazine] | 0.849
20 | CCCCOc1cc(C(=O)OCCN(CC)CC)ccc1N [Benoxinate hydrochloride] | 0.726
21 | CCCCNc1cc(C(=O)O)cc(S(N)(=O)=O)c1Oc1ccccc1 [Bumetanide] | 1.02
22 | O=P(O)(O)C(O)(Cc1cccnc1)P(=O)(O)O [Risedronic acid monohydrate] | 1.1
23 | CCOC(=O)C1=C(C)NC(C)=C(C(=O)OCC)C1c1ccccc1/C=C/C(=O)OC(C)(C)C [Lacidipine] | 0.272
24 | CC(CN(C)C)CN1c2ccccc2CCc2ccccc21 (stereo not given) [Trimipramine maleate salt] | 1
25 | Cc1cccc(C)c1NC(=O)C1CCCCN1C (stereo not given) [Mepivacaine hydrochloride] | 1.45
26 | Cc1[nH]c(=O)c(C#N)cc1-c1ccncc1 [Milrinone] | 0.987
27 | O=C(CCCN1CCC(O)(c2ccc(Cl)cc2)CC1)c1ccc(F)cc1 [Haloperidol] | 0.969
28 | CCc1nn(CCCN2CCN(c3cccc(Cl)c3)CC2)c(=O)n1CCOc1ccccc1 [Nefazodone hydrochloride] | 0.645
29 | CCN(CC)C(=O)N1CCN(C)CC1 [Diethylcarbamazine citrate] | 1.07
30 | CCCC1O[C@@H]2C[C@H]3[C@@H]4CCC5=CC(=O)C=C[C@]5(C)[C@H]4[C@@H](O)C[C@]3(C)[C@]2(C(=O)CO)O1 (stereo not given in full) [Budesonide] | 1.07
31 | CCC[C@H](N[C@@H](C)C(=O)N1[C@H](C(=O)O)C[C@@H]2CCCC[C@@H]21)C(=O)OCC [Perindopril] | 1.17
32 | CN(C)CCOC(c1ccccc1)c1ccccc1 [Diphenhydramine hydrochloride] | 0.968
33 | CCOC(=O)OC(C)OC1=C(C(=O)Nc2ccccn2)N(C)S(=O)(=O)c2ccccc21 (stereo not given) [Ampiroxicam] | 1.1
34 | C#CCN[C@@H]1CCc2ccccc21 [Rasagiline] | 0.849
35 | CC(C)[N+](C)(CCOC(=O)C1c2ccccc2Oc2ccccc21)C(C)C [Propantheline bromide] | 0.987
